# Laboratory results: the supplement of paper PMC8728848
# The other results are listed elsewhere or left out.
# What was measured:
# Assay in all cases: glycan array binding signal (z-score within array); higher = stronger binding
# Conditions in all cases: glycan notation: IUPAC condensed, linker removed
# [1] = target: Gal(b1-4)GlcNAc(b1-3)Gal(b1-3)GlcNAc
# In short: (§1)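 Negative Z-scores can be read as non-binding. The Z-score is calculated within each array and then averaged across arrays of one protein sequence at different concentrations or buffers and across linkers. Arrays, 3228 in all, were curated from the Consortium for Functional Glycomics database and kept only where the protein sequence was available.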
# [2] = target: Gal(b1-4)GlcNAc(b1-3)Gal(b1-4)Glc
# In short: as §1
# [3] = target: Gal(b1-4)GlcNAc(b1-3)Gal(b1-4)GlcNAc
# In short: as §1
# [4] = target: Gal(b1-4)GlcNAc(b1-3)Gal(b1-4)GlcNAc(b1-2)Man(a1-3)[Gal(b1-4)GlcNAc(b1-3)Gal(b1-4)GlcNAc(b1-2)Man(a1-6)]Man(b1-4)GlcNAc(b1-4)GlcNAc
# In short: as §1
# [5] = target: Gal(b1-4)GlcNAc(b1-3)Gal(b1-4)GlcNAc(b1-2)Man(a1-3)[Gal(b1-4)GlcNAc(b1-3)Gal(b1-4)GlcNAc(b1-2)Man(a1-6)]Man(b1-4)GlcNAc(b1-4)[Fuc(a1-6)]GlcNAc
# In short: as §1
# [6] = target: Gal(b1-4)GlcNAc(b1-3)Gal(b1-4)GlcNAc(b1-2)[Gal(b1-4)GlcNAc(b1-3)Gal(b1-4)GlcNAc(b1-6)]Man(a1-6)[Gal(b1-4)GlcNAc(b1-3)Gal(b1-4)GlcNAc(b1-2)Man(a1-3)]Man(b1-4)GlcNAc(b1-4)GlcNAc
# In short: as §1
# [7] = target: Gal(b1-4)GlcNAc(b1-3)Gal(b1-4)GlcNAc(b1-2)[Gal(b1-4)GlcNAc(b1-3)Gal(b1-4)GlcNAc(b1-6)]Man(a1-6)[Gal(b1-4)GlcNAc(b1-3)Gal(b1-4)GlcNAc(b1-2)Man(a1-3)]Man(b1-4)GlcNAc(b1-4)[Fuc(a1-6)]GlcNAc
# In short: as §1
# [8] = target: Gal(b1-4)GlcNAc(b1-3)Gal(b1-4)GlcNAc(b1-3)Gal(b1-4)GlcNAc
# In short: as §1
# [9] = target: Gal(b1-4)GlcNAc(b1-3)Gal(b1-4)GlcNAc(b1-3)Gal(b1-4)GlcNAc(b1-2)Man(a1-3)[Gal(b1-4)GlcNAc(b1-3)Gal(b1-4)GlcNAc(b1-3)Gal(b1-4)GlcNAc(b1-2)Man(a1-6)]Man(b1-4)GlcNAc(b1-4)GlcNAc
# In short: as §1
# [10] = target: Gal(b1-4)GlcNAc(b1-3)Gal(b1-4)GlcNAc(b1-3)Gal(b1-4)GlcNAc(b1-2)Man(a1-3)[Gal(b1-4)GlcNAc(b1-3)Gal(b1-4)GlcNAc(b1-3)Gal(b1-4)GlcNAc(b1-2)Man(a1-6)]Man(b1-4)GlcNAc(b1-4)[Fuc(a1-6)]GlcNAc
# In short: as §1
# [11] = target: Gal(b1-4)GlcNAc(b1-3)Gal(b1-4)GlcNAc(b1-3)Gal(b1-4)GlcNAc(b1-2)[Gal(b1-4)GlcNAc(b1-3)Gal(b1-4)GlcNAc(b1-3)Gal(b1-4)GlcNAc(b1-6)]Man(a1-6)[Gal(b1-4)GlcNAc(b1-3)Gal(b1-4)GlcNAc(b1-3)Gal(b1-4)GlcNAc(b1-2)Man(a1-3)]Man(b1-4)GlcNAc(b1-4)[Fuc(a1-6)]GlcNAc
# In short: as §1
# [12] = target: Gal(b1-4)GlcNAc(b1-3)Gal(b1-4)GlcNAc(b1-3)Gal(b1-4)GlcNAc(b1-3)Gal(b1-4)GlcNAc(b1-2)Man(a1-3)[Gal(b1-4)GlcNAc(b1-3)Gal(b1-4)GlcNAc(b1-3)Gal(b1-4)GlcNAc(b1-3)Gal(b1-4)GlcNAc(b1-2)Man(a1-6)]Man(b1-4)GlcNAc(b1-4)GlcNAc
# In short: as §1
# [13] = target: Gal(b1-4)GlcNAc(b1-3)Gal(b1-4)GlcNAc(b1-3)Gal(b1-4)GlcNAc(b1-3)Gal(b1-4)GlcNAc(b1-2)Man(a1-3)[Gal(b1-4)GlcNAc(b1-3)Gal(b1-4)GlcNAc(b1-3)Gal(b1-4)GlcNAc(b1-3)Gal(b1-4)GlcNAc(b1-2)Man(a1-6)]Man(b1-4)GlcNAc(b1-4)[Fuc(a1-6)]GlcNAc
# In short: as §1
# [14] = target: Gal(b1-4)GlcNAc(b1-3)Gal(b1-4)GlcNAc(b1-3)Gal(b1-4)GlcNAc(b1-3)Gal(b1-4)GlcNAc(b1-2)[Gal(b1-4)GlcNAc(b1-3)Gal(b1-4)GlcNAc(b1-3)Gal(b1-4)GlcNAc(b1-3)Gal(b1-4)GlcNAc(b1-6)]Man(a1-6)[Gal(b1-4)GlcNAc(b1-3)Gal(b1-4)GlcNAc(b1-3)Gal(b1-4)GlcNAc(b1-3)Gal(b1-4)GlcNAc(b1-2)Man(a1-3)]Man(b1-4)GlcNAc(b1-4)[Fuc(a1-6)]GlcNAc
# In short: as §1
# [15] = target: Gal(b1-4)GlcNAc(b1-3)Gal(b1-4)GlcNAc(b1-3)Gal(b1-4)GlcNAc(b1-3)Gal(b1-4)GlcNAc(b1-3)Gal(b1-4)GlcNAc(b1-2)Man(a1-3)[Gal(b1-4)GlcNAc(b1-3)Gal(b1-4)GlcNAc(b1-3)Gal(b1-4)GlcNAc(b1-3)Gal(b1-4)GlcNAc(b1-3)Gal(b1-4)GlcNAc(b1-2)Man(a1-6)]Man(b1-4)GlcNAc(b1-4)GlcNAc
# In short: as §1
# [16] = target: Gal(b1-4)GlcNAc(b1-3)Gal(b1-4)GlcNAc(b1-3)Gal(b1-4)GlcNAc(b1-3)Gal(b1-4)GlcNAc(b1-3)Gal(b1-4)GlcNAc(b1-2)Man(a1-3)[Gal(b1-4)GlcNAc(b1-3)Gal(b1-4)GlcNAc(b1-3)Gal(b1-4)GlcNAc(b1-3)Gal(b1-4)GlcNAc(b1-3)Gal(b1-4)GlcNAc(b1-2)Man(a1-6)]Man(b1-4)GlcNAc(b1-4)[Fuc(a1-6)]GlcNAc
# In short: as §1
# [17] = target: Gal(b1-4)GlcNAc(b1-3)Gal(b1-4)GlcNAc(b1-3)Gal(b1-4)GlcNAc(b1-3)Gal(b1-4)GlcNAc(b1-3)Gal(b1-4)GlcNAc(b1-2)[Gal(b1-4)GlcNAc(b1-3)Gal(b1-4)GlcNAc(b1-3)Gal(b1-4)GlcNAc(b1-3)Gal(b1-4)GlcNAc(b1-3)Gal(b1-4)GlcNAc(b1-6)]Man(a1-6)[Gal(b1-4)GlcNAc(b1-3)Gal(b1-4)GlcNAc(b1-3)Gal(b1-4)GlcNAc(b1-3)Gal(b1-4)GlcNAc(b1-3)Gal(b1-4)GlcNAc(b1-2)Man(a1-3)]Man(b1-4)GlcNAc(b1-4)[Fuc(a1-6)]GlcNAc
# In short: as §1
# [18] = target: Gal(b1-4)GlcNAc(b1-3)Gal(b1-4)GlcNAc(b1-3)Gal(b1-4)GlcNAc(b1-3)Gal(b1-4)GlcNAc(b1-3)Gal(b1-4)GlcNAc(b1-3)Gal(b1-4)GlcNAc(b1-2)Man(a1-3)[Gal(b1-4)GlcNAc(b1-3)Gal(b1-4)GlcNAc(b1-3)Gal(b1-4)GlcNAc(b1-3)Gal(b1-4)GlcNAc(b1-3)Gal(b1-4)GlcNAc(b1-3)Gal(b1-4)GlcNAc(b1-2)Man(a1-6)]Man(b1-4)GlcNAc(b1-4)GlcNAc
# In short: as §1
# [19] = target: Gal(b1-4)GlcNAc(b1-3)Gal(b1-4)GlcNAc(b1-3)GalNAc
# In short: as §1
binder,measurement,setting,value
DrGal9 (Danio rerio) (protein) MAFYQQPPYYNPRIPFSGPIQGGLQDGKSIIISGRVLPGANRFHVNLQCGSHSEANVALHFNPRYEDTDYVVNNSYLNRTWGSEERKYESPFAQGQTFTLQILVAQDKYKISTNGRHFMDYKHRIPFTQVDTVAVEGMVEVNSVAFQNPAGFIPPQAGYAPQYAVPPGCGFPAFPSAPNYTIPHKTVMNGGLHPGKNIVINGVVNPNAKSIIFNLCYRSGIAFHYNPRFDENVVVRNTNQMEKWGAEERFGGLPFHKGQPFQVTISCNPQHYNVFVNGKQEHTYKHRYTKLNDIDILEICGDLQLTSVQA,glycan array binding signal (z-score),[1],0.104
same,glycan array binding signal (z-score),[2],0.782
same,glycan array binding signal (z-score),[3],0.486
same,glycan array binding signal (z-score),[4],1.72
same,glycan array binding signal (z-score),[5],5.22
same,glycan array binding signal (z-score),[6],0.373
same,glycan array binding signal (z-score),[7],2.91
same,glycan array binding signal (z-score),[8],0.429
same,glycan array binding signal (z-score),[9],2.59
same,glycan array binding signal (z-score),[10],4.02
same,glycan array binding signal (z-score),[11],4.33
same,glycan array binding signal (z-score),[12],3.48
same,glycan array binding signal (z-score),[13],3.44
same,glycan array binding signal (z-score),[14],3.19
same,glycan array binding signal (z-score),[15],3.05
same,glycan array binding signal (z-score),[16],2.73
same,glycan array binding signal (z-score),[17],3.6
same,glycan array binding signal (z-score),[18],2.17
same,glycan array binding signal (z-score),[19],0.009
